# Test results taken from the supplement of paper PMC3694890.
# ± gives the uncertainty stated by the source. Some of the results follow. Phosphotyrosine is written y.
# Molecular target: GRB2 (endogenous complexes from cell lysate), P62993
# Assay: GRB2 complex binding differential signal (pY peptide minus Ala control peptide) (fluorescence intensity units); higher = stronger GRB2 complex binding
# 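Note: phosphopeptide probes on the chip at 1–4 µM, lysate proteins bound in 20 mM Tris pH 7.0 buffer with 140 mM NaCl, 1% Triton X-100 and 5% glycerol.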
Binder,GRB2 complex binding differential signal (MCF7),GRB2 complex binding differential signal (MCF10A),GRB2 complex binding differential signal (MDA-MB-231),GRB2 complex binding differential signal (T47D)
yNEDIN [MCM6_699/A1],-305 ± 440,286 ± 230,261 ± 310,729 ± 1300
yLVVNP [MCM6_810/A1],319 ± 540,413 ± 300,852 ± 330,989 ± 1200
ySGDYY [MERTK_749/A1],150 ± 140,152 ± 220,622 ± 310,1440 ± 1700
yILNGG [MERTK_929/A1],771 ± 250,693 ± 240,768 ± 280,2230 ± 1100
yRIMTQ [ALK_1359/A1],3180 ± 610,1700 ± 540,595 ± 420,1160 ± 1000
yRATFP [MET_1003/A1],4040 ± 2400,1690 ± 550,974 ± 540,4410 ± 1700
yDKEYY [MET_1230/A1],-50.4 ± 350,-70 ± 490,235 ± 220,44.7 ± 950
yYSVHN [MET_1234/A1],1060 ± 400,1140 ± 240,372 ± 270,952 ± 1000
ySVHNK [MET_1235/A1],1230 ± 390,1190 ± 250,734 ± 330,1090 ± 1000
yEVMLK [MET_1313/A1],1070 ± 420,539 ± 240,640 ± 300,1150 ± 1400
yVHVNA [MET_1349/A1],1740 ± 510,1650 ± 380,708 ± 380,873 ± 1200
yVNVKC [MET_1356/A1],38000 ± 10000,23000 ± 4200,4180 ± 840,14200 ± 1900
yPSLLS [MET_1365/A1],-240 ± 420,23.8 ± 260,270 ± 290,477 ± 1400
yFDLIY [MET_830/A1],1.48 ± 310,,234 ± 370,79.3 ± 1500
yQRMPL [MUSK_554/A1],8660 ± 2600,1710 ± 430,310 ± 320,978 ± 1400
yGSWFG [ALK_1507/A1],72 ± 240,46 ± 170,236 ± 510,278 ± 900
yVRDIG [MUSK_577/A1],2020 ± 620,1090 ± 570,315 ± 260,753 ± 1100
